Experimental data as given in publication PMC4336329 (PLoS ONE, 2015).
The campaign covered roughly 310,000 compounds. About 2,200 (0.71%) showed an effect of 50% or more. Effects have a minus sign here. Some of the results follow.

Target: human ether-à-go-go-related gene (hERG) potassium channel (human, UniProt Q12809)
Assay: primary screen, population patch clamp on CHO cells stably expressing hERG

Chain of human ether-à-go-go-related gene (hERG) potassium channel (Q12809 whole entry, looked up): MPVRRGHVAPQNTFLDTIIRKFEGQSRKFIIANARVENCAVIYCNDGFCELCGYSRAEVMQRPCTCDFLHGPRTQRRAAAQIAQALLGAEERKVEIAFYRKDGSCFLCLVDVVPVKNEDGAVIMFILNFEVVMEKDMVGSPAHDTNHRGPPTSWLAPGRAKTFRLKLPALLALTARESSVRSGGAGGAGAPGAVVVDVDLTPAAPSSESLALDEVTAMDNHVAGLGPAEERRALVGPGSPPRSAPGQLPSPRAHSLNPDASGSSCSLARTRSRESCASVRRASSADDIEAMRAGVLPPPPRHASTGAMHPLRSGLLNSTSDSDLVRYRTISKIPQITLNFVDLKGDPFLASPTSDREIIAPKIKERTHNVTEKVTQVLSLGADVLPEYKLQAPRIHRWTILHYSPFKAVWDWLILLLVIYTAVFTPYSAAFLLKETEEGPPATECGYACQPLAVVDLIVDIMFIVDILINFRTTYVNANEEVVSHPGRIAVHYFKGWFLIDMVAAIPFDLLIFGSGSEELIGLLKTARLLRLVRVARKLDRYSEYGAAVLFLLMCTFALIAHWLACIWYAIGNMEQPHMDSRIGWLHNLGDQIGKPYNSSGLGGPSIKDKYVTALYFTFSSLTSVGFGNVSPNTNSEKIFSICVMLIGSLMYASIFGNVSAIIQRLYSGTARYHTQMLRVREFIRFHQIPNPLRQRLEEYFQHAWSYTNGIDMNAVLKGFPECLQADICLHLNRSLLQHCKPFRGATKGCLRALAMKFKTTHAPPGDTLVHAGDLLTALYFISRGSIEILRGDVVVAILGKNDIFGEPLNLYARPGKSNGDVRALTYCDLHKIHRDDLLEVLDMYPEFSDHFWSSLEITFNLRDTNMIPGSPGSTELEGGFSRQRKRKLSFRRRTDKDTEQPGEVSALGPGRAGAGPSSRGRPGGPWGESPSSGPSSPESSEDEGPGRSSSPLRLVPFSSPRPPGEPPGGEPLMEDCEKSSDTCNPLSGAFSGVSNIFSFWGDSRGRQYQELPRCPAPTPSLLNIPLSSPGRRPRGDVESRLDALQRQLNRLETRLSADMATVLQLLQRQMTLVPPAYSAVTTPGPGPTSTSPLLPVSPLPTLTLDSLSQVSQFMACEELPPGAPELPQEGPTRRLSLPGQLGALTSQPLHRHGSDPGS

Compound	hERG current change (%, negative = inhibition) at 1uM
Cc1ccsc1C(=O)C1CCCN(Cc2cc3ccccc3o2)C1 (centres unmarked)	0.734%
Cn1c(CNC(=O)c2ccc(Cl)c(Cl)c2)nnc1SCC(=O)Nc1sc2c(c1C#N)CCCC2	11.2%
COc1cc(OC)c(C=O)c(OC(=O)N2CCOCC2)c1	17.7%
COc1ccc(-c2ccc(SCc3ccccn3)nn2)cc1OC	14.5%
O=C(CN(C(=O)c1ccc2c(c1)OCCO2)c1ccccc1)NCC1CCCO1 (centres unmarked)	19.6%
CCOc1ccc(C(C)NC(=O)c2cccs2)cc1OCC (centres unmarked)	5.69%
O=C(CSc1nc(-c2ccccc2)nc2ccccc12)Nc1cccc(C(=O)O)c1	11.9%
CC1CCCN(C(=O)c2ccc(Br)c(S(=O)(=O)N3CCOCC3)c2)C1 (centres unmarked)	2.23%
COc1cccc(CN(C)C(=O)c2cccc(S(=O)(=O)NCc3ccccc3)c2)c1OC	6.03%
COc1ccc(/C=C(\NC(=O)c2ccc(OC)c(OC)c2)C(=O)N2CCN(C)CC2)cc1	2.66%
Cn1cc(C(=O)C(=O)NC2CCCCC2)c2ccccc21	7.31%
CCOC(=O)c1sc(=NC(=O)c2ccc(OC(C)C)cc2)n(C)c1C	6.28%
CC1CCc2c(sc(NC(=O)CCCn3cnc([N+](=O)[O-])n3)c2C(N)=O)C1 (centres unmarked)	0.451%
CC1Cc2ccccc2N1C(=O)CN1C(=O)NC(C)(CCc2ccccc2)C1=O (centres unmarked)	-4.95%
Cc1ccc(C(=O)NC2=NCCS2)cc1Cl	11.3%
COC(=O)CN(c1nc(C)c(Cl)c(OC)n1)S(=O)(=O)c1ccc(C)cc1	-1.7%
COc1ccc(C(=O)CCC(C)(C)[N+](=O)[O-])cc1OC	10.4%
COCC(C)NC(=O)C1c2ccccc2Oc2ccccc21 (centres unmarked)	9.45%
COc1ccc(OCC(O)CN(C2CCCCC2)C2CCCCC2)cc1.Cl (centres unmarked)	-37.9%
CCc1cccc(C)c1NC(=O)c1ccccc1	8.47%
CCc1ccc(C(=O)COc2ccc(NC(C)=O)cc2)cc1	-5.26%
Cc1ccccc1NC(=S)NC(NC(=O)c1ccccc1C)C(Cl)(Cl)Cl (centres unmarked)	10.6%

Compound	hERG current change (%, negative = inhibition) at 1uM
O=C(Nc1ccc(Cl)cn1)c1cc2ccccc2o1	9.1%
O=C(Nc1ccccc1-c1nnc(SCc2ccc(Cl)cc2Cl)o1)c1ccccc1	0.248%
O=C(CSc1nnc(COc2ccc(F)cc2)o1)N1c2ccccc2CCc2ccccc21	9.76%
O=C(CNC(=O)c1ccc(Cl)c([N+](=O)[O-])c1)OC1CCCCC1=O (centres unmarked)	2.3%
CCOc1ccc(NC(=O)CCC(=O)NNC(=O)COc2ccc(C)cc2Br)cc1	10.5%
O=S(=O)(Nc1cccc(S(=O)(=O)N2CCCC2)c1)c1ccc(Cl)s1	-1.35%
COc1cc(OC)cc(N2C(=O)CC(N3CCC(C(=O)N4CCCCC4)CC3)C2=O)c1 (centres unmarked)	18.6%
COc1ccccc1NC(=O)Cn1nnc(C(=O)Nc2ccccc2)c1N	6.23%
Cc1ccc(/C=N/NC(=O)c2ccccn2)s1	23.6%
Cc1ccccc1NC(=O)c1cccc(N2C(=O)C3C4CCC(C4)C3C2=O)c1 (centres unmarked)	24.4%
Cc1oc(S(=O)(=O)N2CCCCC2)cc1NC(=O)Nc1ccc(F)cc1	9.12%
Cc1ccccc1NC(=O)c1ccc([N+](=O)[O-])o1	9.82%
CCOc1ccc(C(C(=O)NC2CCCC2)N(Cc2ccccc2)C(=O)c2nsc(Cl)c2Cl)cc1 (centres unmarked)	-2.29%
Cl.Cn1nnnc1SCCNCc1cccnc1	-1.17%
COC(=O)c1ccc(NCC(=O)c2ccccc2)cc1	7.17%
O=C(C1=COCCO1)N1CCN(c2nc3ccc([N+](=O)[O-])cc3s2)CC1	1.08%
Cc1ccc(OCCCC(=O)Nc2nc3ccccc3[nH]2)cc1	11.9%
C=CCn1c(SCC(=O)NCc2ccco2)nc2sc3c(c2c1=O)CCCC3	4.79%
CC(=O)N1CCCc2cc(S(=O)(=O)Nc3ccccc3C)ccc21	24.1%
c1cncc(C(c2nnnn2C2CCCC2)N2CCCC2)c1 (centres unmarked)	1.07%
CCCN1CCN(CC(O)COC(c2ccc(OC)cc2)c2ccc(OC)cc2)CC1.O=C(O)C(=O)O (centres unmarked)	5.48%
CC1(C)CC(=O)C(C2C3=C(CC(C)(C)CC3=O)Oc3ccccc32)C(=O)C1 (centres unmarked)	14.2%
